Measured values as given in the supplement of paper PMC4604168 (melanoma cell lines).
Some of the results follow. Most values come without repeats; read them as rough.

Experiments:
Experiment in all cases: cell count relative to DMSO control; melanoma cells; higher = more viable cells
Settings in all cases: library dose: low library concentration; 72 h
[1] = tested on: COLO792
[2] = tested on: COLO800
[3] = tested on: COLO829
[4] = tested on: G361
[5] = tested on: IPC-298
[6] = tested on: IST-MEL1
[7] = tested on: LB2518-MEL
[8] = tested on: LOXIMVI
[9] = tested on: MEL-HO
[10] = tested on: MZ2-MEL
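Further: cell number obtained by counting DAPI-stained nuclei in high-throughput microscope images with image analysis software, screen run in 1,536-well plates.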

Row | SMILES | cell count [1] | cell count [2] | cell count [3] | cell count [4] | cell count [5] | cell count [6] | cell count [7] | cell count [8] | cell count [9] | cell count [10]
1 | N#Cc1c(O)c2c(-c3ccc(-c4ccccc4O)cc3)csc2[nH]c1=O + COc1cc2ncnc(Nc3ccc(Oc4ccccc4)cc3)c2cc1OC [SrcI1] (first compound 2 µM, partner dose 2 µM) | 92.4% | 152% | 97.7% | 91% | 91.2% | 91.8% | 115% | 108% | 104% | 92.1%
2 | Oc1cc(-c2nc(-c3ccccc3)[nH]c2-c2ccncc2)ccc1Cl + COc1cc(N2CCC(N3CCN(C)CC3)CC2)ccc1Nc1ncc(Cl)c(Nc2ccccc2S(=O)(=O)C(C)C)n1 [NVP-TAE684] (first compound 0.2 µM, partner dose 0.08 µM) | 90.2% | 92.3% | 99.5% | 73.6% | 88.9% | 102% | 123% | 130% | 86.9% | 87%
3 | CCCCCCCCCCCC1=C(O)C(=O)C=C(O)C1=O [Embelin] + CC(C)CCN1c2nc(Nc3cc(F)c(O)c(F)c3)ncc2N(C)C(=O)C1C [BID1870] (first compound 1.2 µM, partner dose 0.2 µM) | 95.2% | 95.2% | 108% | 96.6% | 101% | 108% | 95.8% | 125% | 99.1% | 100%
4 | CCN(CC)CCCCNc1ncc2cc(-c3cc(OC)cc(OC)c3)c(NC(=O)NC(C)(C)C)nc2n1 + O=c1cc(-c2cccc3c2Sc2ccccc2S3)oc(N2CCOCC2)c1 [KU55933] (first compound 0.1 µM, partner dose 1 µM) | 90.2% | 63.8% | 116% | 107% | 103% | 106% | 103% | 130% | 96.6% | 105%
5 | CCN(CC)CCCCNc1ncc2cc(-c3cc(OC)cc(OC)c3)c(NC(=O)NC(C)(C)C)nc2n1 + O=C(O)C(=O)Nc1sc2c(c1C(=O)O)CCNC2 [TCS401] (first compound 0.1 µM, partner dose 1.66667 µM) | 89.1% | 110% | 106% | 97.6% | 106% | 109% | 106% | 107% | 95.3% | 104%
6 | Cc1cc([N+](=O)[O-])ccc1NS(=O)(=O)c1cc(Cl)ccc1Cl + c1cc(-c2cnn3cc(-c4ccc(OCCN5CCCCC5)cc4)cnc23)ccn1 [Dorsomorphin] (first compound 1 µM, partner dose 0.4 µM) | 73.6% | 123% | 108% | 78.5% | 90.8% | 79.7% | 94.2% | 96.3% | 89.1% | 95%
7 | COc1ccc(-c2ccc3c(N4CCOCC4)nc(N4C[C@@H](C)O[C@@H](C)C4)nc3n2)cc1CO + Oc1nc(-c2ccc(C(F)(F)F)cc2)nc2c1CSCC2 [XAV939] (first compound 0.02 µM, partner dose 2 µM) | 72.5% | 85.3% | 92.2% | 88.7% | 89.1% | 88.4% | 89.7% | 84.2% | 74.5% | 91.7%
8 | COc1ccc(-c2ccc3c(N4CCOCC4)nc(N4C[C@@H](C)O[C@@H](C)C4)nc3n2)cc1CO + O=C1NC(=O)/C(=C/c2ccc(-c3ccc(F)cc3O)o2)S1 [AS252424] (first compound 0.02 µM, partner dose 1 µM) | 99% | 75.7% | 130% | 93.2% | 90.8% | 91.8% | 92.9% | 61.2% | 83.5% | 87.7%
9 | O=S(=O)(c1ccccc1)N(CC(F)(F)F)c1ccc(C(O)(C(F)(F)F)C(F)(F)F)cc1 + COc1cc(N2CCC(N3CCN(C)CC3)CC2)ccc1Nc1ncc(Cl)c(Nc2ccccc2S(=O)(=O)C(C)C)n1 [NVP-TAE684] (first compound 1.4 µM, partner dose 0.08 µM) | 103% | 93.4% | 96.3% | 93.3% | 93.8% | 101% | 91.6% | 98.8% | 97.1% | 99.7%
10 | COc1ccc(-c2ccc3c(N4CCOCC4)nc(N4C[C@@H](C)O[C@@H](C)C4)nc3n2)cc1CO + O=c1cc(-c2cccc3c2Sc2ccccc2S3)oc(N2CCOCC2)c1 [KU55933] (first compound 0.02 µM, partner dose 1 µM) | 92.8% | 85.1% | 105% | 107% | 106% | 101% | 142% | 102% | 93.3% | 97.3%
11 | Cc1cc([N+](=O)[O-])ccc1NS(=O)(=O)c1cc(Cl)ccc1Cl + Oc1nc(-c2ccc(C(F)(F)F)cc2)nc2c1CSCC2 [XAV939] (first compound 1 µM, partner dose 2 µM) | 80.1% | 85.7% | 98.5% | 86.4% | 84.1% | 85% | 102% | 70.7% | 75.5% | 92.8%
12 | O=C1NC(=O)/C(=C/c2ccc(-c3ccc(F)cc3O)o2)S1 + CC(C)CCN1c2nc(Nc3cc(F)c(O)c(F)c3)ncc2N(C)C(=O)C1C [BID1870] (first compound 1 µM, partner dose 0.2 µM) | 99.4% | 128% | 98.5% | 95.1% | 92% | 103% | 106% | 56.9% | 83.7% | 100%
13 | COc1ccc2c(c1)CCC1C2CCC2(C)C(NCCCCCCN3C(=O)C=CC3=O)CCC12 (stereo not given) + Cn1cc(/C=C2\C(=O)Nc3cccnc32)c2ccccc21 [GW441756] (first compound 0.4 µM, partner dose 0.4 µM) | 96% | 118% | 96.7% | 95.2% | 101% | 96.8% | 98.8% | 99.8% | 98.5% | 97.8%
14 | COc1ccc(-c2ccc3c(N4CCOCC4)nc(N4C[C@@H](C)O[C@@H](C)C4)nc3n2)cc1CO + COc1cc2ncnc(Nc3ccc(Oc4ccccc4)cc3)c2cc1OC [SrcI1] (first compound 0.02 µM, partner dose 2 µM) | 86.6% | 96.6% | 109% | 90.7% | 90.7% | 92.4% | 105% | 100% | 81.8% | 91.8%
15 | O=C1NC(=O)/C(=C/c2ccc(-c3ccc(F)cc3O)o2)S1 + Oc1nc(-c2ccc(C(F)(F)F)cc2)nc2c1CSCC2 [XAV939] (first compound 1 µM, partner dose 2 µM) | 77% | 91.5% | 88.5% | 72.1% | 93.6% | 106% | 96.5% | 86.3% | 85.9% | 96%
16 | COc1ccc(-c2ccc3c(N4CCOCC4)nc(N4C[C@@H](C)O[C@@H](C)C4)nc3n2)cc1CO + COc1ccc(COc2ccc(Cc3cnc(N)nc3N)cc2OC)cc1 [GW2580] (first compound 0.02 µM, partner dose 1 µM) | 99.3% | 146% | 93.7% | 101% | 94.4% | 110% | 103% | 62.9% | 95.3% | 92.5%
17 | COc1ccc2c(c1)CCC1C2CCC2(C)C(NCCCCCCN3C(=O)C=CC3=O)CCC12 (stereo not given) + O=c1cc(-c2cccc3c2Sc2ccccc2S3)oc(N2CCOCC2)c1 [KU55933] (first compound 0.4 µM, partner dose 1 µM) | 91.3% | 129% | 104% | 111% | 97.4% | 101% | 128% | 95.1% | 101% | 101%
18 | COc1ccc2c(c1)CCC1C2CCC2(C)C(NCCCCCCN3C(=O)C=CC3=O)CCC12 (stereo not given) + COc1ccc(COc2ccc(Cc3cnc(N)nc3N)cc2OC)cc1 [GW2580] (first compound 0.4 µM, partner dose 1 µM) | 90.4% | 109% | 106% | 94.6% | 97.1% | 88.1% | 91.9% | 130% | 83.3% | 100%
19 | Oc1nc(-c2ccc(C(F)(F)F)cc2)nc2c1CSCC2 + COc1cc(N2CCC(N3CCN(C)CC3)CC2)ccc1Nc1ncc(Cl)c(Nc2ccccc2S(=O)(=O)C(C)C)n1 [NVP-TAE684] (first compound 2 µM, partner dose 0.08 µM) | 82.5% | 101% | 104% | 86.8% | 98.1% | 101% | 103% | 133% | 116% | 102%
20 | COc1ccc2c(c1)CCC1C2CCC2(C)C(NCCCCCCN3C(=O)C=CC3=O)CCC12 (stereo not given) + CCCCCCCCCCCC1=C(O)C(=O)C=C(O)C1=O [Embelin] (first compound 0.4 µM, partner dose 1.2 µM) | 92.1% | 110% | 127% | 82.4% | 103% | 102% | 102% | 103% | 99.3% | 97.9%
21 | N#Cc1c(O)c2c(-c3ccc(-c4ccccc4O)cc3)csc2[nH]c1=O + Oc1cc(-c2nc(-c3ccccc3)[nH]c2-c2ccncc2)ccc1Cl [L779450] (first compound 2 µM, partner dose 0.2 µM) | 109% | 81.5% | 97.2% | 101% | 80.6% | 96% | 97.7% | 116% | 83.7% | 81.9%
22 | COc1cc2ncnc(Nc3ccc(Oc4ccccc4)cc3)c2cc1OC + O=c1cc(-c2cccc3c2Sc2ccccc2S3)oc(N2CCOCC2)c1 [KU55933] (first compound 2 µM, partner dose 1 µM) | 98.7% | 93.4% | 128% | 93.1% | 87.8% | 112% | 144% | 104% | 90.1% | 90.4%
23 | N#Cc1c(O)c2c(-c3ccc(-c4ccccc4O)cc3)csc2[nH]c1=O + O=C1NC(=O)/C(=C/c2ccc(-c3ccc(F)cc3O)o2)S1 [AS252424] (first compound 2 µM, partner dose 1 µM) | 94% | 189% | 92.3% | 91.7% | 102% | 101% | 88.7% | 76.1% | 96% | 97.6%
24 | COc1ccc2c(c1)CCC1C2CCC2(C)C(NCCCCCCN3C(=O)C=CC3=O)CCC12 (stereo not given) + O=C(O)C(=O)Nc1sc2c(c1C(=O)O)CCNC2 [TCS401] (first compound 0.4 µM, partner dose 1.66667 µM) | 96.8% | 95.9% | 98.7% | 98.5% | 96.4% | 94.8% | 96.8% | 114% | 89% | 99.7%
